# Laboratory results taken from PubChem BioAssay AID1345083 (National Center for Advancing Translational Sciences (NCATS), 2018).
# Hit rate of the full screen: of about 94,000 compounds, about 6,200 (6.6%) were called active. The shares of active, inactive and inconclusive entries below differ from those in the screen. Calls come from the whole dose curve; as a rule, active = well fitted inhibition curve with a large enough effect; inconclusive = small, poorly fitted or top-dose-only effect; inactive = flat fitted curve, though single readings scatter. A potency beside an inconclusive call is a rough fit, not a confirmed value.
# Assay: Cytotoxic Profiling in HEK 293 Cell Line of Diverse Libraries Using Quantitative High-Throughput Screening; note: nearly all actives have a fitted effect of over 60% in size
# Conditions: HEK 293 viability, ATP luminescence (CellTiter-Glo), 48-72 h; activity change, negative = cytotoxicity: at 115 µM (top of the series) unless noted; series mostly up to 115 µM
# How it was run: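 CellTiter-Glo luminescence (cellular ATP) was read after 48 or 72 hr of compound exposure at 37 degree Celsius. Cells were HEK 293 plated at 250 cells/well.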
# % is set by controls: 0 for no effect and ±100 for the full control effect; potency is the fitted concentration of half-maximal effect; tags give direction and shape of the fitted curve.
SMILES,Potency,"activity change, negative = cytotoxicity",outcome
CC(C)C1CNC(Cc2ccccc2)CN1C(=O)OC(C)(C)C (stereo not drawn),"inconclusive: 100 µM [inhibitor, partial curve, poor fit]",,
O=C(Nc1cccc(C(F)(F)F)c1)c1nc2c(o1)CCN(CC1CC1)CC2,"inconclusive: 100 µM [inhibitor, partial curve, poor fit]",,
O=C(NCc1ccco1)c1cccc2c1CCN2C(=O)Nc1ccc(F)cc1,"inconclusive: 79.4 µM [inhibitor, partial curve, poor fit]",,
c1cncc(Cc2noc(C3CN(Cc4ccsc4)C3)n2)c1,"inconclusive: 50.1 µM [inhibitor, partial curve, poor fit]",,
CC1=C[C@@H](CNC(=O)Cn2cnnn2)[C@H](C(C)C)C[C@H]1Cc1nc2ccc(C)cc2[nH]1,active: 89.1 µM,,
CNC(=O)c1cc(C2CC2)nc2c1c(C1CCCN1C(=O)c1ccc(C(F)(F)F)cc1)nn2C (stereo not drawn),,inactive: -24.4%,
CN1C[C@H](O)C[C@H]1c1nnc2n1CCN(C(=O)CCc1c[nH]c3ccccc13)CC2,,inactive: 1.91%,
CCn1ccnc1CN(C)Cc1cn(C)nc1-c1ccc(Oc2ccccc2)cc1,active: 39.8 µM,,
CC(C)C[C@@H]1N[C@H](C(=O)NCc2ccccc2)Cc2c[nH]c3cccc1c23,active: 35.5 µM,,
COc1cc(Cl)c(C)cc1NC(=O)Cn1cccc1-c1nc(-c2ccc3c(c2)OCO3)no1,,inactive: -19.5%,
O=C(CC(c1cccc([N+](=O)[O-])c1)c1cn(Cc2ccc(F)cc2)c2ccccc12)N1CCCC1 (stereo not drawn),"inconclusive: 44.7 µM [inhibitor, partial curve, poor fit]",,
COc1ccc2nc3n(c2c1)[C@@H](CNCc1ccc(C#N)cc1)COC3,"inconclusive: 70.8 µM [inhibitor, partial curve, poor fit]",,
Cc1ccc(Nc2ccnc(N3CCCC(C(=O)NCc4ccccc4F)C3)n2)cc1 (stereo not drawn),active: 10 µM,,
Cc1ccc(C(=O)N2CCC(n3cc(-c4nc(C5CC5)no4)nn3)C2)s1 (stereo not drawn),"inconclusive: 44.7 µM [inhibitor, partial curve, poor fit]",,
CCOc1ccc(CC(=O)N2CCC3(CC2)N=C(c2ccc(Cl)cc2)NO3)cc1,"inconclusive: 44.7 µM [inhibitor, partial curve, poor fit]",,
OC1(c2csc(CN3CCc4ccccc4C3)n2)CCN(Cc2ccccc2F)CC1,"inconclusive: 50.1 µM [inhibitor, partial curve, poor fit]",,
O=C(N[C@H]1CCN2C(=O)c3cc(-c4ccc5c(c4)OCO5)ccc3NC(=O)[C@H]12)c1cccc(F)c1,"inconclusive: 17.8 µM [inhibitor, partial curve, poor fit]",,
COc1ccc(-c2cc(C(=O)NC3CC3)c3c(C4CCCNC4)noc3n2)cc1 (stereo not drawn),active: 31.6 µM,,
Cc1cccc(-c2cccc(CN3CCCC(C(=O)NCC(F)F)C3)c2)c1 (stereo not drawn),"inconclusive: 56.2 µM [inhibitor, partial curve, poor fit]",,
O=C1NCCCCCCN(C(=O)c2ccncc2)[C@H]2C[C@H](c3nc(Cc4ccccc4)no3)C[C@@H]12,,inactive: 2.65%,
Cc1ccc(-c2cc(C(=O)NCc3ccc(F)cc3)c3cnn(C)c3n2)cc1,"inconclusive: 50.1 µM [inhibitor, partial curve, poor fit]",,

SMILES,Potency,"activity change, negative = cytotoxicity",outcome
COc1ccc(C2(C(=O)N3CCC(Cc4nc(-c5ccccc5)no4)CC3)CC2)cc1,"inconclusive: 10 µM [inhibitor, full curve, poor fit]",,
COc1ccc(CNC(=O)c2cc3c(N4CCCC4)nc(C)cn3n2)c(OC)c1,,inactive: -21.1%,
O=C(c1cc(F)ccc1F)N1CCC(Cc2nc(-c3ccccc3)n[nH]2)CC1,"inconclusive: 89.1 µM [inhibitor, partial curve, poor fit]",,
CC(C)CN(Cc1cccnc1)C1CN(S(=O)(=O)Cc2ccccc2)C1,"inconclusive: 50.1 µM [inhibitor, partial curve, poor fit]",,
COc1ccc(CN2C(=O)CO[C@H](c3ccc(NC(=O)c4ccccc4OC)cc3)[C@H]2CO)cc1,"inconclusive: 89.1 µM [inhibitor, single point]",,
CC(C)N1C(=O)C2(CCCC2)C1C(=O)NCCN1CCCCC1 (stereo not drawn),,,inactive
COc1ccc(F)cc1CN1CCc2[nH]cnc2C1c1cccc(C#N)c1 (stereo not drawn),"inconclusive: 50.1 µM [inhibitor, partial curve, poor fit]",,
COc1ccc(Nc2ccnc(N3CCCC(C(=O)NCc4ccccc4Cl)C3)n2)cc1 (stereo not drawn),active: 35.5 µM,,
CC(C)c1ccc(CN2CCCC3(CCN(S(C)(=O)=O)C3)C2=O)cc1 (stereo not drawn),"inconclusive: 50.1 µM [inhibitor, partial curve, poor fit]",,
CN(C)c1ccc(C(=O)NCC2CCN(c3cc(-c4ccccc4)[nH]n3)CC2)cc1,"inconclusive: 39.8 µM [inhibitor, full curve, poor fit]",,
CCOCCNC(=O)CNC(=O)c1ccc(-c2cccc(C(F)(F)F)c2)cc1,"inconclusive: 39.8 µM [inhibitor, partial curve]",,
COCCOc1cc(-c2noc([C@@H]3CCCN3Cc3ccncc3)n2)ccn1,"inconclusive: 112 µM [inhibitor, partial curve, poor fit]",,
O=C(c1ccoc1)N1CC(Oc2ccccc2-c2nc(C3CC3)no2)C1,"inconclusive: 44.7 µM [inhibitor, partial curve, poor fit]",,
COc1ccccc1C(=O)NC1CCN(c2ccc3nnc(-c4ccccc4)n3n2)C1 (stereo not drawn),"inconclusive: 50.1 µM [inhibitor, partial curve, poor fit]",,
CN(c1ccccc1)c1cc(=O)c2ccnc(NCc3cnccn3)c2o1,"inconclusive: 89.1 µM [inhibitor, partial curve]",,
CCOc1cc(=O)n2c(c1C(=O)Nc1cccc(C(F)(F)F)c1)CCCC2,"inconclusive: 79.4 µM [inhibitor, single point]",,
Cc1nc(CN2CCOC3(CCN([S+](=O)([O-])c4ccccc4C)CC3)C2=O)cs1,"inconclusive: 100 µM [inhibitor, partial curve, poor fit]",,
O=C(CN1CCOCC1)N1C[C@@H](COCC2CC2)[C@H](c2ccccn2)C1,,inactive: -2.96%,
CCNC(=O)c1cccnc1OC1CCN(C(=O)c2sccc2C)C1 (stereo not drawn),,inactive: -11.1%,
COc1cccc(Nc2ncc(-c3ccccc3)c3c2OCC3)c1,"inconclusive: 22.4 µM [inhibitor, full curve]",,
Cc1cc(C[C@@H]2COC[C@@H]2NC(=O)c2ccc(-c3nnn(C)n3)cc2)on1,,,inactive

SMILES,Potency,"activity change, negative = cytotoxicity",outcome
COc1ccc(CN2C(=O)COC[C@H]2C(=O)NCc2cc(F)ccc2F)c(OC)c1,,inactive: -22.6%,
Cc1cccc(OCCc2noc(C3CCCN(Cc4ccccn4)C3)n2)c1 (stereo not drawn),"inconclusive: 50.1 µM [inhibitor, partial curve, poor fit]",,
COc1ccc(CN2Cc3[nH]cnc3C[C@H]2C(=O)NC2CCCCC2)c2ccccc12,"inconclusive: 63.1 µM [inhibitor, full curve, poor fit]",,
CNC(=O)c1cc(C)nc2onc(C3CCCN([S+](=O)([O-])C(C)C)C3)c12 (stereo not drawn),,inactive: 2.94%,
CC(C)(C)C(=O)NC[C@H]1O[C@H](Cc2cc(-c3ccc(F)cc3)on2)CC[C@@H]1O,"inconclusive: 126 µM [inhibitor, single point]",,
O=C1Cc2c(-c3ccccc3OCc3ccccc3)n[nH]c2CN1CCOc1ccccc1,"inconclusive: 10 µM [inhibitor, full curve, poor fit]",,
CN(C)C[C@@H]1CN(S(C)(=O)=O)C[C@H]1NC(=O)c1ccc(Cl)cc1,,inactive: -28.5%,
O=C(CC1CCCC1)N1CCC2(CC1)CC(N(C(=O)c1ccccc1)C1CC1)CCO2 (stereo not drawn),"inconclusive: 39.8 µM [inhibitor, partial curve, poor fit]",,
COc1ccc(OC)c2nc(-c3cccc(C)c3)c(CN3CCCC(O)C3)cc12 (stereo not drawn),"inconclusive: 89.1 µM [inhibitor, partial curve, poor fit]",,
O=C(c1cc2n(n1)CC(c1ccc(Cl)cc1)OC2)N1CCN(c2ccccc2)CC1 (stereo not drawn),"inconclusive: 50.1 µM [inhibitor, partial curve, poor fit]",,
Cc1cnc(C(=O)N2CCCN(Cc3ccncc3)C(c3ccccc3)CC(=O)NCC2)cn1 (stereo not drawn),,inactive: -2.7%,
COc1ccc(CN2C=C(C(=O)OCc3noc(-c4ccco4)n3)C(C)=NS2(=O)=O)cc1,"inconclusive: 28.2 µM [inhibitor, full curve]",,
CCc1nc2c(c(-c3ccc(Cl)cc3)n1)CN(C(=O)c1cccc(Cl)c1)CC2,,inactive: -22.1%,
COc1ccccc1C(=O)N1CCCn2nc(C)c(-c3ccccc3OCc3ccccc3)c21,"inconclusive: 50.1 µM [inhibitor, partial curve, poor fit]",,
COc1ccc(-c2nc3cc(C)ccc3cc2CN2CCN(C)C(CCO)C2)cc1 (stereo not drawn),"inconclusive: 35.5 µM [inhibitor, full curve, poor fit]",,
Cc1ccccc1N(C)C1CN(Cc2ccc(C(F)(F)F)cc2)C1,active: 100 µM,,
Cc1cccc(CC(=O)N2CCCN(S(C)(=O)=O)c3ccccc32)c1,,inactive: -16.5%,
COc1ccc(NC(=O)N2CCCC(Cn3cnc4cccnc43)C2)cc1F (stereo not drawn),,inactive: 6.52%,
O=C1Nc2ccccc2C(=O)N2CC[C@H](NS(=O)(=O)c3cccs3)[C@@H]12,,inactive: -11.1% [at 172 µM],
COc1ccc(CNC(=O)c2ccc3c(c2)N(C(=O)c2ccc(F)cc2)CC3)cc1OC,active: 31.6 µM,,
Fc1ccc(CN2CC[C@H](c3nnc(-c4ccc(Cl)cc4)o3)C2)cc1,"inconclusive: 112 µM [inhibitor, partial curve, poor fit]",,
